# Test results from PubChem BioAssay AID485281 (National Center for Advancing Translational Sciences (NCATS), 2010).
# Out of some 350,000 compounds screened, about 260 (0.074%) were called active. Inconclusive results, whose numbers are uncertain, are shown with a selection of clear calls. The call rests on the fitted dose curve; in most records, active means well fitted inhibition curve with a large enough effect; inconclusive means small, poorly fitted or top-dose-only effect; inactive means no such curve, though single readings can be large or run the other way. Potencies of inconclusive entries are doubtful fits and often do not repeat.
# Target: Ferritin light chain (Equus caballus) (UniProt P02791)
# UniProt P02791, sequence (P02791 whole entry, looked up): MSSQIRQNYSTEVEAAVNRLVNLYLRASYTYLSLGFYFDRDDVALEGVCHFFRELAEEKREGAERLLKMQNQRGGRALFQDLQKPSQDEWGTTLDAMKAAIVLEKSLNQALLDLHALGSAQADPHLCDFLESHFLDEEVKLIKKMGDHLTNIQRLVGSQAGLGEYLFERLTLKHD
# Experiment: qHTS Assay for Identification of Novel General Anesthetics; further: nearly all actives have a fitted effect of over 20% in size
# Conditions: apoferritin/1-aminoanthracene competitive binding, fluorescence; activity change, negative = displacement: at 77.5 µM (top of the series)
# In short: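 Read-out: endpoint 1-AMA fluorescence, excitation 380 nm and emission 535 nm, after compounds sit 10 min at room temperature with 10 uM horse-spleen apoferritin in 50% saturated 1-AMA/PBS. Values come from four-parameter Hill fits.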
# On the % scale 0 is the no-effect control and ±100 the full control effect; potency means the concentration at half of the fitted maximal effect; tags describe the fitted curve by direction and shape.
Structure (SMILES),Potency,"activity change, negative = displacement"
O=C(Cc1ccccc1)c1ccc(Cl)cc1,"inconclusive: 12.6 µM [inhibitor, single point]",
O=C(Nc1ccc(Cc2ccncc2)cc1)c1ccc(S(=O)(=O)N2CCCC2)cc1,"inconclusive: 20 µM [inhibitor, partial curve]",
CN(C(=O)CC1C(=O)NCCN1Cc1ccc(F)c(F)c1)C1CCCCC1 (stereo not drawn),"inconclusive: 44.7 µM [inhibitor, single point]",
Cc1ccc(NS(=O)(=O)c2ccc(-c3cc(C)no3)cc2)c(Br)c1,"inconclusive: 50.1 µM [inhibitor, single point]",
CCCOc1ccc(N)cc1N,"inconclusive: 50.1 µM [inhibitor, single point]",
Cc1ccc(NC(=O)Cc2ccc(-c3ccccc3)cc2)nc1,,inactive: -24%
O=C(c1cccc(Br)c1)N1CCCc2ccccc21,"inconclusive: 22.4 µM [inhibitor, partial curve]",
COc1cccc2cc(C(=O)C3=C(O)C(=O)N(CCN(C)C)C3c3ccc(F)cc3)oc12 (stereo not drawn),"inconclusive: 28.2 µM [inhibitor, single point]",
CC1CN(C(=O)N2CCC(C(=O)NCCCc3ccccc3)CC2)c2ccccc2O1 (stereo not drawn),,inactive: -3.08%
CCN(CC)S(=O)(=O)c1ccc(N2CCOCC2)c(NCC(=O)Nc2ccc(F)cc2)c1,"inconclusive: 44.7 µM [inhibitor, single point]",
CCOc1ccc(S(=O)(=O)N2CCN(c3ccc(OC)cc3)CC2)c2cccnc12,"inconclusive: 14.1 µM [inhibitor, partial curve]",
Cc1ccc(C)c(C(=O)COC(=O)CCN2C(=O)C3C4CCC(C4)C3C2=O)c1 (stereo not drawn),"inconclusive: 11.2 µM [inhibitor, partial curve]",
O=C(NCc1ccco1)N1c2ccccc2Sc2ccccc21,"inconclusive: 20 µM [inhibitor, partial curve]",
CN(C)c1nnnn1-c1cccc(Oc2ncc(C(F)(F)F)cc2Cl)c1,"inconclusive: 35.5 µM [inhibitor, single point]",
O=C(CN1C(=O)NC2(CCCCCCC2)C1=O)N1CCc2ccccc2C1,"inconclusive: 31.6 µM [inhibitor, partial curve]",
CC1CCC(C(=O)NC(C(=O)OCC(=O)c2ccc(Br)cc2)C(C)C)CC1 (stereo not drawn),,inactive: -18.5%
NS(=O)(=O)c1ccc(NC(=O)CSc2ccc3ccccc3n2)cc1,"inconclusive: 25.1 µM [inhibitor, partial curve]",
Cc1ccc(S(=O)(=O)c2cn(CC(=O)Nc3cccc(C)c3)c3cc4c(cc3c2=O)OCO4)cc1,"inconclusive: 7.94 µM [inhibitor, partial curve]",
O=C(CO/N=C/c1cccc([N+](=O)[O-])c1)Nc1ccc2ccccc2c1,"inconclusive: 22.4 µM [inhibitor, partial curve]",
COc1cccc(C(=O)COc2ccc(NC(=O)c3ccccc3)cc2)c1,"inconclusive: 17.8 µM [inhibitor, partial curve]",
COc1ccc(CCN2C(=O)CN(C3CCCCCC3)C(=O)C2c2ccc(OC(C)C)c(OC)c2)cc1OC (stereo not drawn),,inactive: -6.84%
CN(C(=O)c1ccc2c(Cl)c3c(nc2c1)CCC3)c1ccccc1F,"inconclusive: 1.26 µM [inhibitor, full curve]",
N#Cc1c(N)sc2c1CCCCCC2,"inconclusive: 14.1 µM [inhibitor, partial curve]",

Structure (SMILES),Potency,"activity change, negative = displacement"
Cc1cc(C)cc(C(=O)N2CC(=O)Nc3ccccc32)c1,"inconclusive: 28.2 µM [inhibitor, partial curve]",
Cc1c(C(=O)OCC(=O)c2c(N)n(CC(C)C)c(=O)n(C)c2=O)oc2ccccc12,,inactive: -16.8%
COc1ccc(OCc2nc(-c3ccc(-n4cccc4)cc3)no2)cc1,,inactive: -5.54%
Cc1ccc(S(=O)(=O)Oc2ccc3ccc(O)cc3c2)cc1,"inconclusive: 35.5 µM [inhibitor, partial curve]",
COc1ccc(C2=NOC(C(=O)Nc3cc(Br)ccc3O)C2)cc1OC (stereo not drawn),,inactive: -20.1%
Cc1ccccc1NS(=O)(=O)c1ccc(C(=O)NCC(c2ccccc2)N(C)C)cc1 (stereo not drawn),"inconclusive: 28.2 µM [inhibitor, single point]",
CC(=O)N1c2ccc(S(=O)(=O)N3CCC(C(=O)Nc4cccc(Cl)c4)CC3)cc2CC1C (stereo not drawn),,inactive: 6.9%
O=C1Cc2ccccc2C(=O)N1Cc1ccccc1,"inconclusive: 56.2 µM [inhibitor, single point]",
Cc1cccc(C(C)C)c1NC(=O)C(NS(=O)(=O)c1cccc2nsnc12)c1ccccc1 (stereo not drawn),"inconclusive: 39.8 µM [inhibitor, partial curve]",
CCCCc1ccc(NC(=S)NN2CCOCC2)cc1,"inconclusive: 35.5 µM [inhibitor, partial curve]",
Cc1ccc(-c2cc(C(=O)N/N=C\c3cnn(C)c3C)c3ccccc3n2)cc1C,"inconclusive: 7.94 µM [inhibitor, full curve]",
COc1ccc(NC(=O)CSc2nc3sc(C)cc3c(=O)n2C)c(OC)c1,,inactive: -1.74%
CC(=O)N1c2ccccc2C(C)(c2ccc(C)cc2)CC1(C)C (stereo not drawn),,inactive: 0.318%
O=C(CCN1C(=O)c2ccccc2C1=O)Nc1sc2c(c1C(=O)NCC1CCCO1)CCC2 (stereo not drawn),"inconclusive: 39.8 µM [inhibitor, partial curve]",
COc1ccc(-c2cc(-c3ccco3)[nH]c(=O)c2C#N)cc1OC,,inactive: -12.3%
COc1cccc(-c2nnc(SCc3cccnc3)o2)c1,,inactive: -22.9%
Cc1csc(Sc2ccc([N+](=O)[O-])cc2C(=O)OCC(=O)NC(=O)NC(C)(C)C)n1,"inconclusive: 7.08 µM [inhibitor, partial curve]",
CC(C)=CC(O)C/C(C)=C/COc1ccc2ccc(=O)oc2c1 (stereo not drawn),"inconclusive: 20 µM [inhibitor, partial curve]",
O=C(CSc1nc(-c2ccco2)cc(C(F)(F)F)n1)N1CCN(Cc2ccccc2)CC1,"inconclusive: 28.2 µM [inhibitor, partial curve]",
O=C(/C=C/c1ccc(OC2CSC2)cc1)c1ccccc1,"inconclusive: 39.8 µM [inhibitor, single point]",
CC1COC(c2cccn2Cc2ccccc2Cl)=N1 (stereo not drawn),"inconclusive: 17.8 µM [inhibitor, partial curve]",
COc1cccc(CNC(=O)C2CCC(CNS(=O)(=O)c3cccc4cccnc34)CC2)c1 (stereo not drawn),"inconclusive: 15.8 µM [inhibitor, partial curve]",
CCSc1nnc(Nc2ccc(C)cc2)s1,"inconclusive: 20 µM [inhibitor, partial curve]",

Structure (SMILES),Potency,"activity change, negative = displacement"
Cc1cc(-c2nnc(CCC(=O)NCc3cc(F)cc(C(F)(F)F)c3)o2)no1,"inconclusive: 50.1 µM [inhibitor, single point]",
Nc1nnc(-c2cc3ccccc3oc2=O)s1,,inactive: 253%
COc1ccc(/C=C2/C(=O)N(CC3CCCO3)C(=S)N2C)c(OC)c1 (stereo not drawn),"inconclusive: 35.5 µM [inhibitor, partial curve]",
O=C(c1ccccc1)C1CCc2occc2C1=O (stereo not drawn),"inconclusive: 28.2 µM [inhibitor, partial curve]",
O=C(c1ccc(Br)o1)N(Cc1ccccc1)c1ccccn1,"inconclusive: 14.1 µM [inhibitor, partial curve]",
O=c1oc2c3c(ccc2c2ccccc12)OCN(Cc1ccc(Cl)cc1)C3,,inactive: 0.778%
COc1ccc(CNc2ccc3c(c2)ncn3-c2ccccc2OC)cc1,"inconclusive: 25.1 µM [inhibitor, partial curve]",
CCN(CC)c1ccc(C(=C2C=CC(=[N+](CC)Cc3cccc(S(=O)(=O)[O-])c3)C=C2)c2ccc(N(CC)Cc3cccc(S(=O)(=O)O)c3)cc2)cc1,"inconclusive: 25.1 µM [inhibitor, partial curve]",
O=C(CSCCO)Nc1ccc(C2CCCCC2)cc1,active: 7.08 µM,
CN(C)C(=O)c1snnc1-c1ccccc1,"inconclusive: 50.1 µM [inhibitor, single point]",
O=C(COc1ccccc1)N1CCCCCCC1,"inconclusive: 14.1 µM [inhibitor, partial curve]",
COC(=O)Cc1csc(Nc2ccccc2Cl)n1,"inconclusive: 50.1 µM [inhibitor, single point]",
Cc1ccc(-c2c(C(=O)NCCc3ccccc3)oc(=O)c3ccccc23)cc1,"inconclusive: 22.4 µM [inhibitor, partial curve]",
Nc1ccc2c(c1)OC1(CCCC1)O2,"inconclusive: 20 µM [inhibitor, partial curve]",
COc1ccc(N2CCN(C(=O)NC34CC5CC(CC(C5)C3)C4)CC2)cc1,"inconclusive: 31.6 µM [inhibitor, partial curve]",
CCCCCCCCOC(=O)CCc1c(C)[nH]c(=S)[nH]c1=O,"inconclusive: 35.5 µM [inhibitor, partial curve]",
CCc1cc(-c2n[nH]c(C)c2Oc2ccc(C(C)C)cc2)c(O)cc1O,"inconclusive: 14.1 µM [inhibitor, partial curve]",
COc1ccc(C)cc1NS(=O)(=O)c1ccc(Br)s1,"inconclusive: 31.6 µM [inhibitor, partial curve]",
COC(=O)CN1C(=O)[C@@H]2[C@H](C1=O)[C@@H]1CC(C(=O)OC)=C[C@@H](C(=O)OC)C3C1=C(C(=O)C31CCCCC1)[C@@H]2C (stereo partly drawn),,inactive: -0.658%
Cc1ccc(-c2ccc(=O)n(CCC(=O)N3CCN(c4cccc(C)c4)C(C)C3)n2)cc1 (stereo not drawn),"inconclusive: 44.7 µM [inhibitor, single point]",
COc1ccc(-c2ccnc(SCC(=O)c3ccc(OC)c(OC)c3)n2)cc1,,inactive: -0.783%
Cc1ccc(NCc2n[nH]c(=S)n2Cc2ccccc2)cc1Cl,"inconclusive: 31.6 µM [inhibitor, partial curve]",
